Results as given in the supplement of paper PMC9446081.
The whole screen tested about 39,000 compounds, of which about 220 (0.56%) showed activity. Some of the results follow.

Each molecule was assayed on Escherichia coli K-12 BW25113 (assay: relative growth (OD600 normalised to plate interquartile mean) (fraction); higher = less growth inhibition, active = 0.2 or less). Settings: 50 µM; LB; incubation time: overnight (16-24 h).
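Note: static incubation at 37 °C against the wild-type strain, values averaged over two biological replicates.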

SMILES	relative growth
O=C(O)CCN1CCCC1=O	inactive: 0.975
COc1ccc(S(=O)(=O)N(C)C[C@@H]2Oc3ccc(NS(=O)(=O)c4c(C)noc4C)cc3CC(=O)N([C@H](C)CO)C[C@@H]2C)cc1	inactive: 0.996
C[C@H]1CN([C@@H](C)CO)C(=O)Cc2cc(NC(=O)Nc3ccccc3)ccc2O[C@@H]1CN(C)C(=O)Nc1cccc2ccccc12	inactive: 1.03
COc1ccc(S(=O)(=O)N(C)C[C@H]2Oc3c(NS(=O)(=O)c4ccc(C)cc4)cccc3C(=O)N([C@H](C)CO)C[C@@H]2C)cc1	inactive: 1.04
C[C@H]1CN([C@@H](C)CO)C(=O)Cc2cc(NC(=O)CCCCCC(=O)Nc3ccccc3N)ccc2O[C@@H]1CN(C)S(=O)(=O)c1cn(C)cn1	inactive: 1.02
Cc1ccc(S(=O)(=O)N(C)C[C@H]2Oc3ccc(NC(=O)CCCN(C)C)cc3CC(=O)N([C@H](C)CO)C[C@@H]2C)cc1	inactive: 1.01
COc1ccccc1[C@@H](NC(=O)C1CCN(CCOc2ccc(Cl)cc2Cl)CC1)c1ccccn1	inactive: 0.961
Cc1ccc(S(=O)(=O)N(C)C[C@H]2Oc3ccc(N(C)C)cc3CC(=O)N([C@H](C)CO)C[C@@H]2C)cc1	inactive: 0.989
NC(=O)CC[C@H]1CCCNC1	inactive: 0.986
C[C@@H]1CN([C@@H](C)CO)C(=O)Cc2cc(N(C)C)ccc2O[C@@H]1CN(C)C(=O)Nc1ccc2c(c1)OCO2	inactive: 1
Cc1ccc(S(=O)(=O)Nc2cccc3c2O[C@H](CN(C)C(=O)Nc2cccc4ccccc24)[C@H](C)CN([C@H](C)CO)C3=O)cc1	inactive: 0.995
C[C@@H]1CN([C@H](C)CO)C(=O)c2cc(NC(=O)CCC(F)(F)F)ccc2O[C@H]1CN(C)Cc1ccc(-c2ccccc2)cc1	inactive: 0.869
C[C@@H]1CN([C@@H](C)CO)C(=O)Cc2cc(NS(=O)(=O)c3cccs3)ccc2O[C@@H]1CN(C)Cc1ccncc1	inactive: 0.994
COc1ccc(NC(=O)N(C)C[C@H]2OCCCC[C@@H](C)Oc3ccc(NC(=O)Nc4c(C)noc4C)cc3C(=O)N([C@H](C)CO)C[C@@H]2C)cc1	inactive: 1.02
N=C(N)NC(=O)c1cnccn1	inactive: 0.995
C[C@@H]1CN([C@H](C)CO)C(=O)c2cc(Br)cnc2O[C@H]1CN(C)C(=O)Nc1ccc(F)cc1	inactive: 0.991
COC(=O)c1c(C)cc(OC(=O)c2c(C)cc(O)c(C=O)c2O)c(C)c1O	inactive: 0.867
C[C@@H]1CCCCO[C@H](CN(C)Cc2ccc3c(c2)OCO3)[C@@H](C)CN([C@H](C)CO)C(=O)c2cc(NS(=O)(=O)c3ccccc3)ccc2O1	inactive: 0.983
C[C@H]1CN([C@@H](C)CO)C(=O)c2cc(NS(=O)(=O)c3cn(C)cn3)ccc2O[C@@H]1CN(C)S(=O)(=O)c1cn(C)cn1	inactive: 0.985
C[C@H](CO)N1C[C@H](C)[C@@H](CN(C)S(=O)(=O)c2cn(C)cn2)Oc2ccc(NS(=O)(=O)c3ccc(F)cc3)cc2C1=O	inactive: 0.982

SMILES	relative growth
COc1ccc(S(=O)(=O)N(C)C[C@H]2OCCCC[C@@H](C)Oc3ccc(NC(=O)C4CCCCC4)cc3C(=O)N([C@@H](C)CO)C[C@H]2C)cc1	inactive: 1.05
C=CCC[C@@H](Cc1ccc(F)cc1)C(=O)OC[C@@H](NC(=O)[C@@H](CC=C)CC(=O)N[C@@H](CO)Cc1ccccc1)C(C)(C)C	inactive: 0.987
C[C@H]1CN([C@@H](C)CO)C(=O)c2cc(NC(=O)CCC(F)(F)F)ccc2O[C@H]1CN(C)Cc1ccc(-c2ccccc2)cc1	inactive: 0.961
C[C@@H]1CN([C@@H](C)CO)C(=O)c2cc(Br)cnc2O[C@H]1CN(C)Cc1cccc(C(=O)O)c1	inactive: 1.01
COc1cc2c3cc1Oc1cc(ccc1O)C[C@@H]1c4c(cc(OC)c(O)c4Oc4ccc(cc4)C[C@@H]3N(C)CC2)CC[N+]1(C)C	inactive: 1.03
Cc1ncc([N+](=O)[O-])n1CC(C)O (centres undefined)	inactive: 0.999
COc1ccc(S(=O)(=O)Nc2ccc3c(c2)C(=O)N([C@H](C)CO)C[C@@H](C)[C@H](CN(C)Cc2ccc(Cl)c(Cl)c2)OCCCC[C@@H](C)O3)cc1	inactive: 0.971
C[C@H](CO)N1C[C@H](C)[C@H](CN(C)S(=O)(=O)c2cccs2)Oc2ccc(NC(=O)Nc3cccc4ccccc34)cc2CC1=O	inactive: 0.999
CO[C@@H]1CN(C)C(=O)c2cc(NC(=O)CC(F)(F)F)ccc2OC[C@@H](C)N(C(=O)C2CCOCC2)C[C@H]1C	inactive: 0.998
CCCCc1oc2ccccc2c1C(=O)c1cc(I)c(OCCN(CC)CC)c(I)c1.Cl	inactive: 0.919
C[C@@H]1CCCCO[C@H](CN(C)S(=O)(=O)c2ccc(Cl)cc2)[C@H](C)CN([C@@H](C)CO)C(=O)c2cc(NS(=O)(=O)c3ccccc3)ccc2O1	inactive: 1.02
COc1cc(N2CCC(O)CC2)ccc1Nc1cc(Nc2ccccc2S(=O)(=O)C(C)C)c2cc[nH]c2n1	inactive: 1.03
COc1ccc(NC(=O)Nc2ccc3c(c2)C(=O)N([C@@H](C)CO)C[C@@H](C)[C@@H](CN(C)Cc2ccc(Cl)c(Cl)c2)O3)cc1	inactive: 1.01
C[C@H]1CN([C@@H](C)CO)C(=O)c2cccc(NS(=O)(=O)c3ccc(F)cc3)c2O[C@H]1CN(C)Cc1ccc(Cl)c(Cl)c1	inactive: 0.996
CNC[C@@H]1OCCCC[C@H](C)Oc2ccc(NS(=O)(=O)c3c(C)noc3C)cc2C(=O)N([C@@H](C)CO)C[C@H]1C	inactive: 0.994
C[C@@H]1CN([C@H](C)CO)C(=O)c2cc(NS(=O)(=O)c3cccs3)ccc2O[C@@H](C)CCCCO[C@@H]1CN(C)Cc1ccc(Cl)c(Cl)c1	inactive: 0.998
C[C@H](CO)N1C[C@H](C)[C@@H](CN(C)C(=O)Nc2ccc(F)cc2)OCc2ccccc2-c2c(n(C)c3ccccc23)C1=O	inactive: 0.917
C[C@H](CO)N1C[C@H](C)[C@@H](CN(C)Cc2ccc(-c3ccccc3)cc2)Oc2c(NC(=O)C3CCOCC3)cccc2C1=O	inactive: 1.03
O=C(COC(=O)/C=C/c1cn(-c2ccccc2)nc1-c1ccc2c(c1)OCCO2)N[C@H]1CCS(=O)(=O)C1	inactive: 0.998
COCCOC(=O)N1C(=O)[C@@]2(c3cc(C#Cc4ccc(OC)cc4)ccc31)[C@H](C(=O)N1CCc3cc(OC)c(OC)cc3C1)[C@H]1C(=O)O[C@H](c3ccccc3)[C@H](c3ccccc3)N1[C@@H]2c1ccc(O)cc1	inactive: 1.04

SMILES	relative growth
C[C@H](CO)N1C[C@H](C)[C@@H](CN(C)C(=O)Nc2ccc(F)cc2)Oc2ccc(NC(=O)CCN3CCOCC3)cc2CC1=O	inactive: 0.991
C[C@@H]1CCCCO[C@H](CN(C)C(=O)c2ccccc2)[C@@H](C)CN([C@H](C)CO)C(=O)c2cc(NC(=O)CCC(F)(F)F)ccc2O1	inactive: 0.989
CCS(=O)(=O)Nc1ccc2c(c1)C(=O)N(C)[C@@H]1CC[C@@H](CC(=O)N[C@@H]3CCN(Cc4ccccc4)C3)O[C@@H]1CO2	inactive: 1.01
COc1ccc(NC(=O)N(C)C[C@H]2Oc3c(NC(=O)Nc4ccc(C(F)(F)F)cc4)cccc3C(=O)N([C@@H](C)CO)C[C@@H]2C)cc1	inactive: 0.806
COc1ccc(S(=O)(=O)Nc2ccc3c(c2)C(=O)N([C@@H](C)CO)C[C@@H](C)[C@@H](CN(C)Cc2ccc(-c4ccccc4)cc2)O3)cc1	inactive: 1.05
C=CCOC(=O)O[C@H]1[C@@H](OC)O[C@H](COC(=O)NCCCCCC(=O)NO)[C@H]2OC(=O)[C@@H](Cc3cccc(Br)c3)C/C=C/C[C@H](Cc3ccccc3)C(=O)O[C@H]12	inactive: 0.986
Cl.O=C1CC2(CCCC2)CC(=O)N1CCCCN1CCN(c2ncccn2)CC1	active: 0.0493
CN1CCCN=C1C=Cc1cccc(O)c1.O=C(O)c1cc2ccccc2c(Cc2c(O)c(C(=O)O)cc3ccccc23)c1O	inactive: 1.1
CC(C)(C)[S@@](=O)N1Cc2cc(C(=O)N3CCCCC3)nc(-c3cccc(-c4ccc(F)cc4)c3)c2[C@H]1CCO	inactive: 0.977
C[C@@H]1CN([C@@H](C)CO)C(=O)c2cc(NS(C)(=O)=O)ccc2O[C@H]1CN(C)Cc1ccc(C(F)(F)F)cc1	inactive: 0.973
CCN(CC)c1nc(C#N)nc(OC)n1	inactive: 0.98
COc1cccc(S(=O)(=O)N[C@@H]2C=C[C@H](CC(=O)NC3CCC3)O[C@H]2CO)c1	inactive: 0.989
O=C1CCOC1	inactive: 0.985
CC(C)NC(=O)N(C)C[C@@H]1OCCCC[C@@H](C)Oc2ccc(NS(C)(=O)=O)cc2C(=O)N([C@H](C)CO)C[C@H]1C	inactive: 1
C[C@H](CO)N1C[C@H](C)[C@H](CN(C)C(=O)Nc2ccccc2)OCCCC[C@H](C)Oc2ccc(NC(=O)Nc3ccc4c(c3)OCO4)cc2C1=O	inactive: 0.995
CO[C@@H]1CN(C)C(=O)c2ccc(NS(=O)(=O)c3cn(C)cn3)cc2OC[C@H](C)N(Cc2cccc(F)c2)C[C@@H]1C	inactive: 0.986
O=C(Nc1ccc(Cl)cc1)Nc1ccc(Cl)c(Cl)c1	inactive: 0.92
COc1cccc(CN(C)C[C@H]2OCc3ccccc3-c3c(n(C)c4ccccc34)C(=O)N([C@H](C)CO)C[C@@H]2C)c1	inactive: 0.993
C[C@@H]1CN([C@H](C)CO)C(=O)c2cc(NC(=O)Nc3ccc(C(F)(F)F)cc3)ccc2O[C@@H]1CN(C)Cc1ccc(C(=O)O)cc1	inactive: 0.99
